According to PubChem BioAssay AID1745845 (National Center for Advancing Translational Sciences (NCATS), 2022):
About 2,600 (0.72%) of roughly 360,000 compounds were called active. This list was built around the results that the source calls inconclusive (neither active nor inactive); the mix of calls is not that of the screen. Calls follow the shape of the dose curve; as a rule, active = well fitted inhibition curve with a large enough effect; inconclusive = small, poorly fitted or top-dose-only effect; inactive = no such curve, though single readings can be large or run the other way. Potencies of inconclusive entries are doubtful fits and often do not repeat.

Experiment: Primary qHTS for Inhibitors of ATXN expression; also: nearly all actives have a fitted effect of over 55% in size
Conditions: HEK-293 ATXN2-luciferase reporter, luminescence, 24 h; series mostly up to 57 µM
In short: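 ATXN2-luciferase reporter cells (luciferase flanked by upstream and downstream ATXN2 gene portions) were treated 24 h at 37 °C with compounds at up to 57 uM. SteadyGlo luminescence gave expression; GF-AFC fluorescence gave viability.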
Potency is read from the fitted curve at half-maximal effect; tags tell the direction and shape of the fitted curve.

| SMILES | Potency |
| --- | --- |
| CCCCCOc1c(Cl)cc(C(=O)N(Cc2ccc(C)o2)C2CCS(=O)(=O)C2)cc1Cl (stereo not drawn) | inconclusive: 39.8 µM [inhibitor, single point] |
| NC(CCc1ccccc1)c1csc(Nc2ccccn2)n1 (stereo not drawn) | inconclusive: 39.8 µM [inhibitor, single point] |
| Brc1ccc2c(c1)OCCOCCOCCOCCOCCOCCO2 | inconclusive: 39.8 µM [inhibitor, partial curve, poor fit] |
| CC1=C(C(=O)OC(C)C)C(c2cccc([N+](=O)[O-])c2)C(C(=O)OC2CN(C(c3ccccc3)c3ccccc3)C2)=C(N)N1 (stereo not drawn) | active: 31.6 µM |
| CN(C)C(CNC(=O)c1ccc(C2SCCS2)cc1)c1ccccc1 (stereo not drawn) | inactive |
| ONC(=Nc1ccc(Cl)cc1)c1ccccc1 | inactive |
| Cc1cccnc1C(NC(=O)C1CCN(CCCc2ccccc2)CC1)c1ccc(Cl)cc1 (stereo not drawn) | inconclusive: 28.2 µM [inhibitor, single point] |
| Cc1cccc(-c2noc(-c3ccc(Cl)cc3[N+](=O)[O-])n2)c1 | inactive |
| C=CC[C@H](CC(=O)N(CCO)Cc1ccccc1)C(=O)NC[C@@H](OC(=O)[C@@H](CC=C)Cc1ccc(F)cc1)c1ccccc1 | inconclusive: 35.5 µM [inhibitor, single point] |
| COc1ccccc1CNc1nc(-c2cc(C)n(C)c2C)cs1 | inconclusive: 8.44 µM [inhibitor, single point] |
| CCC(C)(C)C1CCC2(CC1)NC(=O)N(CC(=O)NC(C)CCc1ccccc1)C2=O (stereo not drawn) | inactive |
| COc1ccccc1N1Cc2ccccc2C1 | inactive |
| C=CCc1c(C)nc(-c2ccccc2)nc1Nc1ccc(O)cc1 | inconclusive: 39.8 µM [inhibitor, single point] |
| Nc1ccc(-c2ncc(-c3ccccc3)o2)cc1 | inconclusive: 0.0891 µM [inhibitor, full curve, poor fit] |
| C[C@@H]1CN([C@H](C)CO)C(=O)c2c(c3ccccc3n2C)-c2ccccc2CO[C@H]1CN(C)Cc1ccc(C(F)(F)F)cc1 | inconclusive: 39.8 µM [inhibitor, single point] |
| CC1CCN(C(=O)CCN2C(=O)/C(=C/c3cccs3)SC2=S)CC1 | inconclusive: 39.8 µM [inhibitor, single point] |
| COc1cc(OC)cc(C(=O)NCC(=O)NCCN2C(=O)S/C(=C\c3ccc4c(c3)OCO4)C2=O)c1 | inactive |
| CC1=C(C(=O)OCC2CCCCC2)C(c2ccc(Cl)cc2)CC(=O)N1 (stereo not drawn) | inactive |
| O=[N+]([O-])c1nn(-c2ccc3c(c2)OCCO3)n(O)c1=Nc1ccccc1 | inconclusive: 44.7 µM [inhibitor, partial curve, poor fit] |
| NC(=O)c1ccc(NC(=O)COC(=O)c2c3c(nc4ccccc24)/C(=C\c2ccc4c(c2)OCO4)CCC3)cc1 | inconclusive: 39.8 µM [inhibitor, single point] |
| CCNC(=O)c1c(O)c2ccccc2[nH]c1=O | inconclusive: 14.1 µM [inhibitor, partial curve, poor fit] |
| Cc1nc(Oc2ccc(S(=O)(=O)N3CCOCC3)cc2Cl)c2c3c(sc2n1)CCCC3 | inconclusive: 28.2 µM [inhibitor, single point] |

| SMILES | Potency |
| --- | --- |
| O=C(CSc1ccccn1)Nc1ccc(F)c([N+](=O)[O-])c1 | inactive |
| CN(C)CCNc1nc2sc3c(c2c(=O)n1Cc1ccccc1)CCCCC3 | inconclusive: 17.8 µM [inhibitor, partial curve, poor fit] |
| CCOC(=O)c1oc2ccccc2c1CN1CCN(C)CC1 | inactive |
| Cc1ccc(NC(=O)C(=O)Nc2ccccn2)cc1 | inconclusive: 14.1 µM [inhibitor, single point] |
| Cn1c(SCc2nc(-c3ccc(Cl)cc3)no2)nnc1-c1ccco1 | inconclusive: 22.4 µM [inhibitor, partial curve, poor fit] |
| Cc1cccc(NC2=C/C(=N/S(=O)(=O)c3cccs3)c3ccccc3C2=O)c1 | inconclusive: 3.55 µM [inhibitor, full curve] |
| CC1(C(=O)NCc2ccccc2Br)CCN1C(=O)Cc1ccc(-c2ccccc2)cc1 (stereo not drawn) | inconclusive: 31.6 µM [inhibitor, single point] |
| C=CC[C@H](CC(=O)N(CCO)Cc1ccccc1)C(=O)N[C@H](COC(=O)[C@H](CC=C)CC(=O)OC(C)(C)C)Cc1c[nH]c2ccccc12 | inconclusive: 39.8 µM [inhibitor, single point] |
| O=C1C=C(NCCN2CCOCC2)CC(c2ccccc2)C1 (stereo not drawn) | inactive |
| COc1ccc(N(CC(=O)N2CCN(c3ccc(Cl)cc3)CC2)S(=O)(=O)c2c(C)n[nH]c2C)cc1 | inconclusive: 11.2 µM [inhibitor, partial curve] |
| COc1ccc(CCN(C)C(=O)Cc2ccc(-c3ccccc3)cc2)cc1OC | inconclusive: 3.16 µM [inhibitor, partial curve, poor fit] |
| O=c1cc(-c2ccccc2)cc(-c2ccccc2)n1O | active: 14.1 µM |
| CN1C2CCC1/C(=C\c1ccccc1)C(=O)/C2=C\c1ccccc1 | active: 25.1 µM |
| CC(C)(C)C(=O)Nc1ccc(C(=O)NCc2cccnc2)cc1 | inactive |
| CC(C)CN(C(=O)CCC(=O)OCc1ccc(Cl)cc1Cl)c1c(N)n(CC(C)C)c(=O)[nH]c1=O | inactive |
| O=C(Cc1ccc(Cl)cc1)N1CCOCC1 | inconclusive: 0.126 µM [inhibitor, full curve, poor fit] |
| Cn1nnnc1Sc1ncnc2scc(-c3ccc(C(F)(F)F)cc3)c12 | active: 3.98 µM |
| Cc1ccc(-c2nnc(SCC(=O)Nc3ccccc3F)o2)cc1 | inactive |
| CCc1nc2ccc(C(=O)NCCOc3ccc(OC)cc3)cn2c1N(C)Cc1ccc(N(C)C)cc1 | inactive |
| COc1ccc(-c2noc(N3CCC(C(=O)Nc4cccc(OC)c4)CC3)n2)cc1 | inconclusive: 23.8 µM [inhibitor, single point] |
| CC1CCN(c2nc(CN3CCCCC3)nc3scc(-c4ccccc4)c23)CC1 | inconclusive: 28.2 µM [inhibitor, single point] |
